# Screen size: about 39,000 compounds; about 220 (0.56%) showed activity. This is one part of the list.
# Tested on: Escherichia coli K-12 BW25113
# Experiment: relative growth (OD600 normalised to plate interquartile mean) (fraction); higher = less growth inhibition, active = 0.2 or less
# Conditions: 50 µM; LB; incubation time: overnight (16-24 h)
# 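Also: static incubation at 37 °C against the wild-type strain, values averaged over two biological replicates.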
row,SMILES,relative growth
1,O=C(CCCl)NCCc1ccccc1,inactive: 1.07
2,Cc1ccc(-c2cnc3c(c2)C(=O)N([C@H](C)CO)C[C@H](C)[C@H](CN(C)C(=O)Cc2cccnc2)O3)cc1,inactive: 1
3,CC(/C=C/C(=O)NO)=C\c1ccccc1OC[C@@H]1[C@H]2C[C@H]3c4[nH]c5ccccc5c4CCN3C[C@@H]2CC[C@@H]1O,inactive: 1
4,C[C@@H]1CCCCO[C@@H](CN(C)S(=O)(=O)c2ccc(Cl)cc2)[C@@H](C)CN([C@@H](C)CO)C(=O)c2cc(NC(=O)NC3CCCCC3)ccc2O1,inactive: 0.995
5,C[C@H]1CCCCO[C@@H](CN(C)Cc2ccccc2)[C@@H](C)CN([C@@H](C)CO)C(=O)c2cc(NC(=O)C3CCCCC3)ccc2O1,inactive: 0.962
6,CC(C)NC(=O)Nc1cccc2c1O[C@H](CN(C)Cc1ccc3c(c1)OCO3)[C@H](C)CN([C@H](C)CO)C2=O,inactive: 1
7,C[C@H](CO)N1C[C@H](C)[C@H](CN(C)Cc2ccc(Cl)c(Cl)c2)Oc2ccc(NS(=O)(=O)c3ccc(F)cc3)cc2C1=O,inactive: 1.01
8,C[C@H]1CN([C@@H](C)CO)C(=O)CCCn2nncc2CO[C@H]1CN(C)S(=O)(=O)c1cn(C)cn1,inactive: 0.976
9,C[C@H]1CCCCO[C@@H](CN(C)C(=O)CCC(F)(F)F)[C@@H](C)CN([C@@H](C)CO)C(=O)c2cc(NS(=O)(=O)c3ccc(F)cc3)ccc2O1,inactive: 0.885
10,C[C@@H]1CCCCO[C@H](CN(C)Cc2ccc(Cl)c(Cl)c2)[C@@H](C)CN([C@@H](C)CO)C(=O)c2cc(NC(=O)Nc3ccc(C(F)(F)F)cc3)ccc2O1,inactive: 1.03
11,C[C@H]1CCCCO[C@H](CN(C)C(=O)Nc2ccc3c(c2)OCO3)[C@@H](C)CN([C@@H](C)CO)C(=O)c2cc(NC(=O)C3CCCCC3)ccc2O1,inactive: 1.01
12,Cc1ccc(S(=O)(=O)Nc2ccc3c(c2)C(=O)N([C@H](C)CO)C[C@@H](C)[C@H](CN(C)Cc2ccc(Cl)c(Cl)c2)OCCCC[C@@H](C)O3)cc1,inactive: 0.966
13,COc1ccc(NC(=O)Nc2ccc3c(c2)C(=O)N([C@H](C)CO)C[C@H](C)[C@@H](CN(C)C(=O)Nc2ccccc2)OCCCC[C@H](C)O3)cc1,inactive: 1.03
14,CC(=O)Nc1nnc(S(N)(=O)=O)s1,inactive: 1.1
15,C[C@@H]1CCCCO[C@H](CN(C)C(=O)Nc2ccc(C(F)(F)F)cc2)[C@@H](C)CN([C@H](C)CO)C(=O)c2cc(NS(=O)(=O)c3ccc(Cl)cc3)ccc2O1,inactive: 0.842
16,C[C@@H]1CN([C@@H](C)CO)C(=O)c2cc(NC(=O)CCC(F)(F)F)ccc2O[C@@H]1CN(C)C(=O)Nc1ccc(C(F)(F)F)cc1,inactive: 0.99
17,CCCCC(CC)CCC(CC(C)C)OS(=O)(=O)[O-].[Na+] (configuration not stated),inactive: 0.746
18,CC(=O)Nc1c(I)cc(I)c(C(=O)O)c1I,inactive: 1.16
19,Cc1ccc(S(=O)(=O)Nc2ccc3c(c2)C(=O)N([C@@H](C)CO)C[C@H](C)[C@H](CN(C)C(=O)C2CCCCC2)OCCCC[C@H](C)O3)cc1,inactive: 0.979

row,SMILES,relative growth
1,Cc1cc2cc3c(C)cc(=O)oc3c(C)c2o1,inactive: 1.04
2,C[C@@H]1CN([C@H](C)CO)C(=O)c2ccccc2-c2ccccc2CO[C@H]1CN(C)C(=O)Nc1ccc(-c2ccccc2)cc1,inactive: 0.999
3,O=C(C[C@@H]1C[C@@H]2c3cc(NC(=O)Cc4ccncc4)ccc3O[C@@H]2[C@H](CO)O1)NCCN1CCCCC1,inactive: 1
4,C[C@H]1CN([C@@H](C)CO)C(=O)CCCn2nncc2CO[C@H]1CN(C)S(=O)(=O)c1ccc(Oc2ccccc2)cc1,inactive: 1.01
5,CC(C)Oc1ccc2c(=O)c(-c3ccccc3)coc2c1,inactive: 1.12
6,COc1ccc(NC(=O)N(C)C[C@H]2OCCCC[C@@H](C)Oc3ccc(NC(=O)c4ccncc4)cc3C(=O)N([C@@H](C)CO)C[C@@H]2C)cc1,inactive: 0.974
7,NNC(=O)[C@@H]1C(c2ccccc2)[C@H]1C(=O)NN (some centres not stated),inactive: 1.04
8,C[C@@H]1CN([C@@H](C)CO)C(=O)c2cc(C#Cc3ccccc3F)cnc2O[C@H]1CN(C)C(=O)C1CCOCC1,inactive: 0.948
9,Cc1noc(C)c1S(=O)(=O)Nc1ccc2c(c1)C(=O)N([C@@H](C)CO)C[C@@H](C)[C@@H](CN(C)Cc1ccc(Cl)c(Cl)c1)OCCCC[C@@H](C)O2,inactive: 0.953
10,COc1ccc(NC(=O)N(C)C[C@@H]2OCCCC[C@@H](C)Oc3ccc(NC(=O)Nc4cccc5ccccc45)cc3C(=O)N([C@@H](C)CO)C[C@H]2C)cc1,inactive: 1.01
11,COCCOC(=O)N1C(=O)[C@@]2(c3cc(C#CCNC(N)=O)ccc31)[C@H](c1ccc(OCCO)cc1)N1[C@H](c3ccccc3)[C@H](c3ccccc3)OC(=O)[C@H]1[C@@H]2C(=O)N1CCc2cc(OC)c(OC)cc2C1,inactive: 1.03
12,C[C@H]1CN([C@@H](C)CO)C(=O)Cc2cc(NC(=O)Nc3ccccc3)ccc2O[C@H]1CN(C)C(=O)Nc1ccc(C(F)(F)F)cc1,inactive: 1.02
13,Cc1noc(C)c1S(=O)(=O)Nc1ccc2c(c1)C(=O)N([C@H](C)CO)C[C@H](C)[C@H](CN(C)CC1CCCCC1)OCCCC[C@@H](C)O2,inactive: 0.983
14,C[C@H](CO)N1C[C@H](C)[C@@H](CN(C)S(=O)(=O)c2ccc(F)cc2)Oc2ccc(NC(=O)Nc3ccc(C(F)(F)F)cc3)cc2C1=O,inactive: 0.974
15,CC(C)NC(=O)Nc1ccc2c(c1)CC(=O)N([C@H](C)CO)C[C@@H](C)[C@H](CN(C)S(=O)(=O)c1cn(C)cn1)O2,inactive: 1.05
16,C[C@@H]1CN([C@@H](C)CO)C(=O)c2cc(NC(=O)Nc3ccc(C(F)(F)F)cc3)ccc2O[C@@H](C)CCCCO[C@@H]1CN(C)Cc1ccc(C(F)(F)F)cc1,inactive: 0.997
17,Cc1ccccc1OCC(=O)NCC(=O)O,inactive: 1.02
18,Cn1cnc(CCNC(=O)C[C@@H]2CC[C@H]3[C@@H](COC[C@@H](O)CN3C(=O)Nc3ccc(Cl)cc3)O2)c1,inactive: 0.917

# Source: the supplement of paper PMC9446081
